Assay results reported in PubChem BioAssay AID504332 (National Center for Advancing Translational Sciences (NCATS), 2011).
The campaign covered roughly 350,000 compounds. About 31,000 (8.9%) were called active. The inconclusive results got no clear call from the source; some entries with a clear call stand among them for comparison. Calls come from the whole dose curve; as a rule, active = well fitted inhibition curve with a large enough effect; inconclusive = small, poorly fitted or top-dose-only effect; inactive = no such curve, though single readings can be large or run the other way. Potencies of inconclusive entries are doubtful fits and often do not repeat.

Target: Histone-lysine N-methyltransferase EHMT2 (Homo sapiens) (UniProt Q96KQ7)
Assay: qHTS Assay for Inhibitors of Histone Lysine Methyltransferase G9a; note: nearly all actives have a fitted effect of over 75% in size
Conditions: G9a H3K9 monomethylation, AlphaScreen, 2 h; activity, negative = inhibition: at 59 µM (top of the series) unless noted
Summary of the method: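 Enzyme 20 nM + cpd, 15 min RT; add b-H3K9 pep 500 nM / SAM 20 uM; 2 h RT; anti-H3K9me1 Ab 0.5 ug/mL + SA donor / anti-rabbit acceptor beads 20 ug/mL each, 10 min; AlphaScreen read.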
% is set by controls: 0 for no effect and ±100 for the full control effect; potency is the fitted concentration of half-maximal effect; tags give direction and shape of the fitted curve.

Sequence of UniProt Q96KQ7 (Q96KQ7 whole entry, looked up): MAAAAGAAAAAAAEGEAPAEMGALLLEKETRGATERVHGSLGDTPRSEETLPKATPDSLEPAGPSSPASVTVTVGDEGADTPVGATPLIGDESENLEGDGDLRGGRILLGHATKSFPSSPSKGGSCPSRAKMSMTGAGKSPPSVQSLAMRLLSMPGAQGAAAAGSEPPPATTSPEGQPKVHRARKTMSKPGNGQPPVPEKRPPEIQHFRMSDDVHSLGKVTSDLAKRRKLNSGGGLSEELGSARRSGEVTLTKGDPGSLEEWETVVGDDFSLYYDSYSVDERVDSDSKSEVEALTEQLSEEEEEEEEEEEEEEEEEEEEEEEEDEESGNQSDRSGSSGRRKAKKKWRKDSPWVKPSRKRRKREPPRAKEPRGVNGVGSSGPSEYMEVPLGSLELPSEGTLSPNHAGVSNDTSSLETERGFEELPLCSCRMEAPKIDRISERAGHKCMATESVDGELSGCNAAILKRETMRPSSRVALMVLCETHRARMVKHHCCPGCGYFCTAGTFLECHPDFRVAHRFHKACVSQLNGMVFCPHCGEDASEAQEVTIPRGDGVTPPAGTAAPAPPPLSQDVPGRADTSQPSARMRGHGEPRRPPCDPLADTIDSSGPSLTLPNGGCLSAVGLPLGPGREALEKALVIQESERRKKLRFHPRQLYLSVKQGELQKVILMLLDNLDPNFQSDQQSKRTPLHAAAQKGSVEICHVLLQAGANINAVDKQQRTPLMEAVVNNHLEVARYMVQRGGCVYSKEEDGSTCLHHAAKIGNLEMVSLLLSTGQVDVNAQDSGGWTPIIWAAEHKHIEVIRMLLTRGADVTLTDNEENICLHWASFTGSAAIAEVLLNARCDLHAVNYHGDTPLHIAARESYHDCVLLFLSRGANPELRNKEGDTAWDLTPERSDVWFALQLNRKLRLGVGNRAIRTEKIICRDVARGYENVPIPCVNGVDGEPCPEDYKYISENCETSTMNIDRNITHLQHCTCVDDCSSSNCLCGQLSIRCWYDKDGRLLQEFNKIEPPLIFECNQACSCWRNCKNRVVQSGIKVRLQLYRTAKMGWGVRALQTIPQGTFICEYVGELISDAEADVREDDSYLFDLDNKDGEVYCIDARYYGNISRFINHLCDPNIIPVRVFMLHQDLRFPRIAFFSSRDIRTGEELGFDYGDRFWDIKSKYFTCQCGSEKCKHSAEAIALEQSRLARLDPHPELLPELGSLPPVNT

| Structure (SMILES) | Potency | activity, negative = inhibition |
| --- | --- | --- |
| NC(=O)COC(=O)c1ccc(S(=O)(=O)NCc2ccco2)cc1 | inconclusive: 56.2 µM [inhibitor, partial curve, poor fit] | – |
| CN1CCN(c2ccccc2NC(=O)c2ccc(-c3cccc([N+](=O)[O-])c3)o2)CC1 | inconclusive: 25.1 µM [inhibitor, single point] | – |
| CC(=O)Nc1ccc(Nc2nc(-c3sc(C)nc3C)cs2)cc1 | inconclusive: 70.8 µM [inhibitor, single point] | – |
| Cc1ccccc1C(=O)NC[C@@H]1CCCN2CCCC[C@H]12 | inactive | – |
| O=C(c1cccc(S(=O)(=O)N2CCOCC2)c1)N(Cc1nnc(-c2ccccc2Cl)o1)C1CC1 | active: 50.1 µM | – |
| COc1ccc(CC(=O)Nc2ncc([N+](=O)[O-])s2)cc1OC | active: 11.2 µM | – |
| CC(C)Cn1c(Cc2ccccc2)n[nH]c1=S | active: 12.6 µM | – |
| CCCn1ncc(CN2CCC(n3nccc3NC(=O)c3ccccc3OC)CC2)c1C | inactive | – |
| Cc1ccc(OCc2ccc(C(=O)N3CCOCC3)cc2)cc1C | inconclusive: 31.6 µM [inhibitor, single point] | – |
| CC1Cc2cc(S(=O)(=O)CCC(=O)Nc3ccc(F)cc3)ccc2N1C(=O)C1CC1 (stereo not given) | inconclusive: 3.98 µM [inhibitor, partial curve, poor fit] | – |
| COc1cc(/C=C/C(=O)O)cc2c1OCCO2 | inconclusive: 39.8 µM [inhibitor, partial curve, poor fit] | – |
| COc1ccc(Br)cc1[C@H]1[C@@H]2C=CCC[C@@]2(C)C(=O)N1Cc1ccccc1 | inconclusive: 11.2 µM [inhibitor, single point] | – |
| C=CCn1c(C(C)NC(=O)CCC)nc2ccccc21 (stereo not given) | inconclusive: 0.794 µM [inhibitor, full curve, poor fit] | – |
| CCN1CCc2c(sc(NC(=O)c3ccc(S(=O)(=O)N(C)C4CCCCC4)cc3)c2C(N)=O)C1 | inconclusive: 39.8 µM [inhibitor, single point] | – |
| CCOC(=O)/C(C#N)=C/c1cc2cc(C)c(C)cc2nc1Cl | inconclusive: 3.16 µM [inhibitor, single point] | – |
| COc1ccc(CN(C)CC(=O)Nc2cc3oc4ccccc4c3cc2OC)c(OC)c1 | inactive | – |
| COc1ccc(Cn2c(-c3ccco3)nc3oc4cc(OC)ccc4c(=O)c3c2=O)cc1 | active: 50.1 µM | – |
| CN(C)c1oc(-c2ccccc2Cl)nc1S(=O)(=O)c1ccccc1 | active: 79.4 µM | – |
| Cc1ccc(Cn2c(C3CCCN3c3nc(C)cs3)nc3cc(C(F)(F)F)ccc32)cc1 (stereo not given) | inconclusive: 39.8 µM [inhibitor, full curve, poor fit] | – |
| O=C(NCc1cn2ccsc2n1)c1c(F)cccc1Cl | inconclusive: 39.8 µM [inhibitor, full curve] | – |
| O=C(O)c1cc(-c2ccco2)[nH]n1 | inconclusive: 20 µM [inhibitor, single point] | – |
| COc1ccc(N2C(=O)c3ccccc3C2=O)cc1 | – | inactive: -7.39% [at 12.7 µM] |

| Structure (SMILES) | Potency | activity, negative = inhibition |
| --- | --- | --- |
| Cc1ccc(C(=O)NCC(c2ccco2)N2CCOCC2)cc1 (stereo not given) | inconclusive: 89.1 µM [inhibitor, partial curve, poor fit] | – |
| COc1cc(C(=O)N2CCNC(=O)C2CC(=O)Nc2ccc(C)c(C)c2)cc(OC)c1OC (stereo not given) | inactive | – |
| CC(CC(=O)O)CC(=O)Nc1cc([N+](=O)[O-])ccc1O (stereo not given) | inconclusive: 11.2 µM [inhibitor, partial curve, poor fit] | – |
| CCCCOc1c(Br)cc(CNCCCN2CCOCC2)cc1OC | inconclusive: 89.1 µM [inhibitor, single point] | – |
| O=C(O)c1ccccc1NC(=O)c1cc(-c2ccccc2)nc2ccccc12 | inconclusive: 89.1 µM [inhibitor, single point] | – |
| Cc1ccc(S(=O)(=O)Nc2cc3c(C(=O)OCc4ccccc4)c(C)oc3c3ccccc23)c(C)c1 | inconclusive: 7.94 µM [inhibitor, partial curve, poor fit] | – |
| COc1ccccc1/C=N/NC(=O)NC12CC3CC(CC(C3)C1)C2 | – | inactive: 22.8% [at 2.33 µM] |
| COc1ccc(C(C)=O)cc1COC(=O)c1ccc(OCc2c(C)noc2C)cc1 | inconclusive: 89.1 µM [inhibitor, single point] | – |
| CC(C)CCNC(=O)COc1ccc2c(c1)C(=O)CC(C)(C)O2 | – | inactive: 4.58% [at 12.7 µM] |
| CCn1nc(C(=O)Nc2cc(Cl)ccc2-n2cncn2)c2ccccc2c1=O | inconclusive: 79.4 µM [inhibitor, partial curve] | – |
| C(=N\Nc1ccc2ccccc2n1)/c1ccc2c(c1)OCCO2 | inconclusive: 89.1 µM [inhibitor, single point] | – |
| O=C(NN1C(=O)c2cc(Br)ccc2NC1c1ccccc1Cl)c1ccncc1 (stereo not given) | inactive | – |
| O=C(NC(Cc1ccc2c(c1)OCO2)C(=O)NC(Cc1ccccc1)C(=O)O)c1ccccc1 (stereo not given) | inconclusive: 89.1 µM [inhibitor, single point] | – |
| Cc1csc2ncc(C(=O)NCc3ccco3)c(=O)n12 | inconclusive: 28.2 µM [inhibitor, single point] | – |
| COc1cc(OC)c2c(c1)OC(=O)CC2c1ccc2c(c1)OCO2 (stereo not given) | inconclusive: 35.5 µM [inhibitor, partial curve] | – |
| CCOC(=O)c1c(-c2ccccc2)csc1NC(=O)C1CCCO1 (stereo not given) | inconclusive: 10 µM [inhibitor, partial curve, poor fit] | – |
| O=C(O)c1cccc(N/N=C/c2sc(N3CCOCC3)nc2-c2ccccc2)c1 | inconclusive: 17.8 µM [inhibitor, partial curve, poor fit] | – |
| Cc1ccc(-c2nn(C)c(=O)c3ccccc23)cc1CNC(=O)CSc1nc2ccccc2o1 | inconclusive: 70.8 µM [inhibitor, partial curve, poor fit] | – |
| CC(=O)Nc1sc(N/N=C\c2ccc(O)cc2)nc1-c1cccs1 | active: 31.6 µM | – |
| Cc1ccc(S(=O)(=O)CCC(=O)Nc2ccc(Br)cc2)cc1 | inconclusive: 89.1 µM [inhibitor, single point] | – |
| Cc1ccc(S(=O)(=O)CC(=O)Nc2ccc3nc(C)sc3c2)cc1 | inactive | – |
| O=C(NNC(=S)Nc1ccc(Br)cc1Cl)c1ccco1 | inconclusive: 20 µM [inhibitor, single point] | – |

| Structure (SMILES) | Potency | activity, negative = inhibition |
| --- | --- | --- |
| N#CCCNS(=O)(=O)c1ccc(C(=O)OCC(=O)Nc2ccc3c(c2)OCO3)cc1 | – | inactive: -5.02% [at 12.7 µM] |
| Cc1cc(CNC(=O)C(C)n2cc([N+](=O)[O-])cn2)c2ccccc2n1 (stereo not given) | inconclusive: 39.8 µM [inhibitor, partial curve] | – |
| COc1ccc(S(=O)(=O)N2CCOCC2)cc1NC(=O)c1ccncc1 | – | inactive: 6.63% [at 12.7 µM] |
| O=C(Nc1ccc(Cl)cc1C(=O)Nc1ccncc1)c1ccco1 | inconclusive: 39.8 µM [inhibitor, partial curve, poor fit] | – |
| Cc1c(C(=O)O)oc2ccc(S(=O)(=O)N3CCCCC3C(=O)O)cc12 (stereo not given) | inconclusive: 89.1 µM [inhibitor, single point] | – |
| CCOC(=O)c1c(NC(=O)CCl)sc(CN(C)C)c1-c1ccccc1 | inconclusive: 79.4 µM [inhibitor, single point] | – |
| N=C(N)c1ccc(/C=C/c2ccc(C(=N)N)cc2O)cc1 | inconclusive: 1.58 µM [inhibitor, partial curve, poor fit] | – |
| CC(Oc1ccc(Cl)cc1)C(=O)N1CCN(C(=O)c2ccco2)CC1 (stereo not given) | – | inactive: 17.7% [at 12.7 µM] |
| O=C(O)c1ccccc1C(=O)NNc1ccc(Cl)cc1 | inconclusive: 11.2 µM [inhibitor, full curve, poor fit] | – |
| CC(=O)NS(=O)(=O)c1ccc(NC(=O)c2cc(-c3ccc(C)c(C)c3)nc3ccccc23)cc1 | inconclusive: 31.6 µM [inhibitor, single point] | – |
| COC(=O)C1=C(C)NC(=O)NC1c1cn(-c2ccccc2)nc1-c1ccc(OC)c(Br)c1 (stereo not given) | inconclusive: 2.51 µM [inhibitor, partial curve] | – |
| Nc1nccnc1C(=O)OCC(=O)N1CCN(S(=O)(=O)c2ccc(Cl)cc2)CC1 | inconclusive: 56.2 µM [inhibitor, partial curve] | – |
| COc1ccc(-n2c(SCC(=O)C(C)(C)C)nc3c(sc(=S)n3-c3ccccc3)c2=O)c(OC)c1 | active: 1.26 µM | – |
| COc1ccc(C2NC(=O)NC3=C2CCc2ccccc23)cc1 (stereo not given) | inconclusive: 20 µM [inhibitor, single point] | – |
| Cc1nn(Cc2ccccc2)c(C)c1NC(=O)c1cc(-c2ccco2)on1 | inconclusive: 39.8 µM [inhibitor, single point] | – |
| C[C@H]1CN(C2CCCCC2)C(=O)[C@@H]1CC(=O)NCc1ccccc1 | inconclusive: 79.4 µM [inhibitor, single point] | – |
| Cc1ccc(S(=O)(=O)C(CNC(=O)COc2ccccc2)c2cccs2)cc1 (stereo not given) | active: 11.2 µM | – |
| CCN(CCNC(=O)CCCn1nc(C)n2c(cc3sccc32)c1=O)c1ccccc1 | inconclusive: 79.4 µM [inhibitor, single point] | – |
| CC(=O)C1=C(C)NC(SCSc2ccccc2)=C(C#N)C1c1cccnc1 (stereo not given) | inconclusive: 4.47 µM [inhibitor, single point] | – |
| COCC(=O)N1CCC[C@@]2(CCN(Cc3ccc(C#N)cc3)C2)C1 | – | inactive: -11% [at 12.7 µM] |
| CCN(CC)C(=O)CSc1nc(C)cc(C)c1C#N | inconclusive: 31.6 µM [inhibitor, partial curve, poor fit] | – |
